We go through 18 compounds from the supplement of paper PMC10037445.

Over roughly 2,900 compounds, “NF-kB SEAP reporter activity, fold change vs agonist alone” has its median near 0.99; the highest 2% begin near 2.6. This is one part of the list.

For assay [1], the system named is RAW-Dual. Put plainly: NF-kB SEAP reporter activity, fold change vs agonist alone; higher = enhanced NF-kB activity. The gist of the method:
(§1)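 Library stock was pin-tooled at 50 nL into 384-well plates of RAW-Dual macrophages (50,000 cells/well, DMEM), followed 1 h later by a PRR agonist, and the cells were kept at 37 °C, 5% CO2. Supernatant collected after 20 hours was read for IRF by QuantiLuc luminescence and for NF-κB by QuantiBlue absorbance at 620 nm. Reporter activity is fold change over agonist-alone wells, and a well counted as cytotoxic when its IncuCyte confluency was below 70% of agonist controls in both mask sets.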

In assay [2] the test system is RAW-Dual. Put plainly: NF-kB SEAP reporter activity, fold change vs agonist alone; cytotoxicity flag (confluency mask): not cytotoxic; higher = enhanced NF-kB activity. The gist of the method:
as §1

For assay [3], the system named is RAW-Dual. Put plainly: NF-kB SEAP reporter activity, fold change vs agonist alone; cytotoxicity flag (confluency mask): cytotoxic (confluency <70% of control); higher = enhanced NF-kB activity. Put shortly:
as §1

The mark [4] stands for this setting: library stock concentration (final ~1000-fold dilution): 10 mM, cytotoxicity flag (confluency mask): not cytotoxic, agonist: Imiquimod (TLR7) […].
Where [5] appears, read: library stock concentration (final ~1000-fold dilution): 10 mM, cytotoxicity flag (confluency mask): not cytotoxic, agonist: MPLA (TLR4) […].
[6] abbreviates: agonist: ODN 1826 (TLR9) 0.5 ug/mL.
Setting [7] is: agonist: Pam2CSK4 (TLR2/6) 0.1 ug/mL.
The mark [8] stands for this setting: agonist: Pam3CSK4 (TLR2/1) 0.1 ug/mL.
[9] abbreviates: library stock concentration (final ~1000-fold dilution): 10 mM, cytotoxicity flag (confluency mask): cytotoxic (confluency <70% of control), agonist: MPLA (TLR4) […].

For the compound `O=C(O)C1OC(Oc2cc3oc(-c4ccccc4)cc(=O)c3c(O)c2O)C(O)C(O)C1O` (stereo not drawn), the “NF-kB SEAP reporter activity” value worked out at 0.88 in the assay on RAW-Dual [1] (setting [4]) and 1.02 in the assay on RAW-Dual [1] (setting [5]).

`O=C(O)C1OC(Oc2cc3oc(-c4ccccc4)cc(=O)c3c(O)c2O)C(O)C(O)C1O` (stereo not drawn) (library stock concentration (final ~1000-fold dilution): 10 mM): the “NF-kB SEAP reporter activity” value in the assay on RAW-Dual [2] (agonist: LPS (TLR4) 0.1 ug/mL) is 0.967; with RAW-Dual [2] (setting [6]), 1; with RAW-Dual [2] (setting [7]), 1.14; with RAW-Dual [2] (setting [8]), 0.815.

For the compound `O=C(CCCN1CCC(O)(c2ccc(Cl)cc2)CC1)c1ccc(F)cc1`, the entries for the “NF-kB SEAP reporter activity” value in the assay on RAW-Dual [1] (setting [4]) and in the assay on RAW-Dual [1] (setting [5]) were 1.6 and 1.16, respectively.

With `O=C(CCCN1CCC(O)(c2ccc(Cl)cc2)CC1)c1ccc(F)cc1` (library stock concentration (final ~1000-fold dilution): 10 mM), the “NF-kB SEAP reporter activity” value in the assay on RAW-Dual [2] (agonist: LPS (TLR4) 0.1 ug/mL) worked out at 1.23; in the assay on RAW-Dual [2] (setting [6]), 0.422; with RAW-Dual [2] (setting [7]), 0.872; in the assay on RAW-Dual [2] (setting [8]), 0.964.

For `CC(=O)N1c2ccc(-c3ccc(C(=O)O)cc3)cc2C(Nc2ccc(Cl)cc2)CC1C` (stereo not drawn) (library stock concentration (final ~1000-fold dilution): 10 mM), the “NF-kB SEAP reporter activity” value with RAW-Dual [2] (agonist: LPS (TLR4) 0.1 ug/mL) was determined as 4.2.

With `CC1Cc2c([nH]c3ccccc23)C(c2c(F)cc(/C=C/C(=O)O)cc2F)N1CC(C)(C)F` (stereo not drawn) (library stock concentration (final ~1000-fold dilution): 10 mM), the “NF-kB SEAP reporter activity” value in the assay with RAW-Dual [2] (agonist: LPS (TLR4) 0.1 ug/mL) was determined as 0.59; in the assay with RAW-Dual [2] (setting [6]) it was 0.648; in the assay with RAW-Dual [2] (setting [7]), 0.368; in the assay with RAW-Dual [2] (setting [8]) it was 0.403.

For the compound `CC1Cc2c([nH]c3ccccc23)C(c2c(F)cc(/C=C/C(=O)O)cc2F)N1CC(C)(C)F` (stereo not drawn), the “NF-kB SEAP reporter activity” value in the assay on RAW-Dual [1] (setting [4]) came to 0.715; in the assay with RAW-Dual [1] (setting [5]) it was 0.876.

Take `C#Cc1cccc(Nc2ncnc3cc(OCCOC)c(OCCO)cc23)c1.Cl`: the “NF-kB SEAP reporter activity” value in the assay with RAW-Dual [1] (setting [4]) was found to be 1.81; in the assay with RAW-Dual [1] (setting [5]), 2.51.

As to `C#Cc1cccc(Nc2ncnc3cc(OCCOC)c(OCCO)cc23)c1.Cl` (library stock concentration (final ~1000-fold dilution): 10 mM), the “NF-kB SEAP reporter activity” value was 4.71 with RAW-Dual [2] (agonist: LPS (TLR4) 0.1 ug/mL), 1.41 in the assay on RAW-Dual [2] (setting [6]), 1.02 in the assay on RAW-Dual [2] (setting [7]) and 1.87 in the assay with RAW-Dual [2] (setting [8]).

For the compound `COc1cc(C=CC(=O)CC(=O)C=Cc2ccc(O)c(OC)c2)ccc1O` (library stock concentration (final ~1000-fold dilution): 100 mM), the “NF-kB SEAP reporter activity” value with RAW-Dual [2] (agonist: LPS (TLR4) 0.1 ug/mL) turned out to be 0.303; in the assay with RAW-Dual [2] (setting [6]), 0.197; in the assay with RAW-Dual [2] (setting [7]), 0.13; in the assay with RAW-Dual [2] (setting [8]) it was 0.242.

On to `COc1cc(C=CC(=O)CC(=O)C=Cc2ccc(O)c(OC)c2)ccc1O`, for which the “NF-kB SEAP reporter activity” value turned out to be 0.155 with RAW-Dual [1] (library stock concentration (final ~1000-fold dilution): 100 mM, cytotoxicity flag (confluency mask): not cytotoxic, agonist: Imiquimod (TLR7) […]) and 0.257 in the assay on RAW-Dual [1] (library stock concentration (final ~1000-fold dilution): 100 mM, cytotoxicity flag (confluency mask): not cytotoxic, agonist: MPLA (TLR4) […]).

Consider `CCC(C)(C)C(=O)OC1CC(C)C=C2C=CC(C)C(CCC3CC(O)CC(=O)O3)C21` (stereo not drawn), for which the “NF-kB SEAP reporter activity” value with RAW-Dual [1] (library stock concentration (final ~1000-fold dilution): 10 mM, cytotoxicity flag (confluency mask): cytotoxic (confluency <70% of control), agonist: Imiquimod (TLR7) […]) turned out to be 2.53; with RAW-Dual [1] (setting [9]) it was 1.95.

Turning to `CCC(C)(C)C(=O)OC1CC(C)C=C2C=CC(C)C(CCC3CC(O)CC(=O)O3)C21` (stereo not drawn) (library stock concentration (final ~1000-fold dilution): 10 mM), the “NF-kB SEAP reporter activity” value with RAW-Dual [3] (agonist: LPS (TLR4) 0.1 ug/mL) turned out to be 2.35; in the assay on RAW-Dual [3] (setting [6]), 2.44; in the assay on RAW-Dual [3] (setting [7]), 2.12; in the assay on RAW-Dual [3] (setting [8]), 3.35.

With `COC(=O)CCc1ccc(OCC(O)CNC(C)C)cc1` (stereo not drawn), the “NF-kB SEAP reporter activity” value came out at 0.811 with RAW-Dual [1] (setting [4]) and 0.998 in the assay on RAW-Dual [1] (setting [5]).

Consider `COC(=O)CCc1ccc(OCC(O)CNC(C)C)cc1` (stereo not drawn) (library stock concentration (final ~1000-fold dilution): 10 mM), for which the “NF-kB SEAP reporter activity” value in the assay with RAW-Dual [2] (agonist: LPS (TLR4) 0.1 ug/mL) stood at 1.61; in the assay on RAW-Dual [2] (setting [6]), 0.82; with RAW-Dual [2] (setting [7]), 0.942; in the assay with RAW-Dual [2] (setting [8]), 0.804.

Take `COc1cc(C(=O)NC2CCN(C)CC2)ccc1Nc1ncc2c(n1)N(C1CCCC1)CC(F)(F)C(=O)N2C`: in the assay on RAW-Dual [1] (setting [9]), the “NF-kB SEAP reporter activity” value is 2.85.

Regarding `COc1cc(C(=O)NC2CCN(C)CC2)ccc1Nc1ncc2c(n1)N(C1CCCC1)CC(F)(F)C(=O)N2C` (library stock concentration (final ~1000-fold dilution): 10 mM), the figures for the “NF-kB SEAP reporter activity” value in the assay on RAW-Dual [3] (agonist: LPS (TLR4) 0.1 ug/mL) and with RAW-Dual [3] (setting [8]) were 5.16 and 3.04, respectively.

Consider `O=C(NCc1cccc(O)c1)Nc1nc(-c2ccncc2)cs1`, for which the “NF-kB SEAP reporter activity” value was 1.3 with RAW-Dual [1] (setting [4]) and 1.45 with RAW-Dual [1] (setting [5]).
